PubChem BioAssay AID1963858 (Molecular Pharmacology Branch, DTP, NCI, 2024)
For part of its entries the source gives two or more results. The list is limited to them. An entry can have further records. The records of an entry are repeated measurements in other runs, samples, wells, individuals or studies. Additions like (4×) count equal records among those shown.

Test system: HOP-62 multicell spheroids with HUVEC/MSC, viability
Assay: Anticancer human tumor HOP-62 cell line growth inhibition [KRAS2];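 note: viability read after a week of compound exposure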;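 for viability, T/C: 100% = DMSO vehicle-treated spheroids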
Conditions: for viability, T/C: stronger effect = lower value; for IC50: compound alone
Excerpt: Multicellular complex tumor spheroid response to RAS pathway inhibitors in combination with a targeted agents in patient-derived cell lines with oncogenic KRAS variants from multiple cancer types
A high-throughput screen of multi-cell type tumor spheroids was designed to identify active combinations of targeted small molecules and KRAS pathway inhibitors. Complex spheroids include a stromal component modeled by human endothelial cells (HUVEC) and fibroblasts modeled by human mesenchymal stem cells (MSCs). The concentration ranges selected for each drug and investigational agent were based upon clinically achievable concentrations if the clinical Cmax of the agent was known.
Compounds. The drugs and investigational agents: BI-3406 (NSC825286), BAY-293 (NSC824723), batoprotafib (TNO155; NSC825523), sotorasib (AMG 510; NSC818433), MRTX1257 (NSC819558), elimusertib (BAY 1895344; NSC800525), molibresib (GSK525762; NSC774829), temuterkib (LY3214996; NSC803410), venetoclax (NSC766270), alisertib (NSC759677), olaparib (NSC753686), talazoparib (NSC767125), erdafitinib (NSC781556), ipatasertib (NSC767898), cabozantinib (NSC761068), nintedanib (NSC756659), abemaciclib (NSC768073), docetaxel (NSC628503), trametinib (NSC758246), and sapanisertib (NSC764658) were obtained from the National Cancer Institute (NCI) Developmental Therapeutics Program Chemical Repository. The FDA-approved anticancer drug set is available from the Developmental Therapeutics Program. […] The stock solutions were prepared in dimethyl sulfoxide (DMSO, Sigma-Aldrich, St. Louis, MO, cat. D2650) at 800-fold the tested concentration and stored at -70 degrees C prior to their use. All drugs and investigational agents were tested over a range starting from a high concentration at or near the clinical Cmax and decreasing in half-log increments. If the clinical Cmax for an agent had not been determined, the highest concentration tested was 10 microM.
Cell Culture. All cells were maintained in an incubator at 37 degrees C and 5% CO2 with 95% humidity. The PDC lines were cultured according to standard operating procedures established by the NCI PDMR (https://pdmr.cancer.gov/sops/default.htm). Briefly, all PDCs were thawed and cultured in Matrigel-coated flasks prepared with a working solution of 1X Ham's F-12 nutrient mix, without supplementation (Invitrogen, Waltham, MA, cat. 11765054), 100 U/mL penicillin-streptomycin (Invitrogen, cat. 15140122), and 2.5% Matrigel (Corning Inc., Corning, NY, cat. 354248) for the first three passages. All PDCs were cultured in complete DMEM/F-12 media containing advanced DMEM/F-12 (Invitrogen, cat. 12634028), 4.9% defined fetal bovine serum, heat inactivated (HyClone Laboratories Inc., Logan, UT, cat. SH30070.03HI), 389 ng/mL hydrocortisone (Sigma-Aldrich, cat. H4001), 9.7 ng/mL human EGF recombinant protein (Invitrogen, cat. PHG0313), 23.4 microg/mL adenine (Sigma-Aldrich, cat. A2786), 97.3 U/mL penicillin-streptomycin (Invitrogen, cat. 15140122), 1.9 mM L-glutamine (Invitrogen, cat. 25030081), and 9.7 microM Y-27632 dihydrochloride (Tocris Bioscience, Bristol, United Kingdom, cat. 1254). The PDCs were cultured in complete DMEM/F12 media without 9.7 microM Y-27632 dihydrochloride for at least two passages prior to the screen. The established cell line HOP-62 was cultured in RPMI 1640 medium, HEPES (Invitrogen, cat. 22400105) with 10% defined fetal bovine serum (HyClone Laboratories Inc., cat. SH30070.03) and 2 mM L-glutamine (Invitrogen, cat. 25030081). The pooled donor HUVEC were cultured in endothelial cell growth medium 2 (PromoCell, Heidelberg, Germany, cat. C-22011) and the hMSC were cultured in mesenchymal stem cell growth medium 2 (PromoCell, cat. C-28009). For all experiments, HUVEC and hMSC were used at passages </=5, while the malignant cell lines were used at passages </=15. […]

C=CC(=O)N1CCN(c2nc(=O)n(-c3c(C)ccnc3C(C)C)c3nc(-c4c(O)cccc4F)c(F)cc23)C(C)C1 (stereo unspecified)
viability, T/C (compound alone 0.1 µM): 60.7, 81.5, 56.3, 46.9, 66.9, 67.3, 61.1, 57, 51.6, 57.1, 61.2, 63.4, 66.6, 63.2, 72.4, 62.1, 66.2% | viability, T/C (compound alone 0.316 µM): 58.7, 70, 50.4, 51.4, 77, 34.3, 63.1, 56.9, 57.2, 57.6, 37.1, 69.3, 79.9, 68.4, 74.1, 72.1, 69.5% | viability, T/C (compound alone 1 µM): 75.7, 71.5, 52.4, 50.4, 59.9, 63.1, 59.2, 64.1, 58.6, 66.3, 64.3, 65.4, 71.6, 58.9, 66.8, 64, 71.7% | viability, T/C (compound alone 10 µM): 47.9, 65.1, 48.9, 53.9, 54.9, 45.2, 48.4, 46.9, 38.7, 44.7, 40.3, 45, 47.2, 47 (2×), 45.1, 49.6% | IC50 (run of 07/12/2021): 7.76 µM, < 100 nM, > 10 µM

COc1cc2nc(C)nc(NC(C)c3cc(N)cc(C(F)(F)F)c3)c2cc1OC1CCOC1 (stereo unspecified)
viability, T/C (compound alone 0.1 µM): 88.1, 101 (2×), 104, 99.4, 95.3, 73.9, 103, 98.5, 95.5, 96.2, 102, 94.8, 28.5, 10.7, 99.8, 88.4% | viability, T/C (compound alone 0.316 µM): 67.4, 109, 91.4 (2×), 83.9, 92.8, 93.5, 77.8, 93.9 (2×), 84.1, 96.5, 93.8, 62.8, 99.2, 105, 97.2% | viability, T/C (compound alone 1 µM): 95.5, 105, 101 (2×), 76.7, 83.4, 79.6, 58.6, 72.2, 84.5, 87.6, 90, 91.7, 92.1, 84.3, 113, 96.6% | viability, T/C (compound alone 3.16 µM): 50.9, 68.3, 62.9, 60.6, 52.8, 61.5, 54.7, 60.4, 73, 83.5, 63.8, 76.3, 73.8, 109, 95.6, 84.6, 90.2% | viability, T/C (compound alone 10 µM): 53.8, 59.5, 103, 49.4, 51.6, 51.8, 40.4, 44.6, 62.8, 56.4, 49.1, 56.2, 57.6 (2×), 64, 62, 60.8% | IC50 (run of 07/19/2021): 3.86 µM, 6.46 µM, > 10 µM, 9.32 µM | IC50 (run of 07/26/2021): > 10 µM and < 100 nM

O=C(c1cc(Cc2n[nH]c(=O)c3ccccc23)ccc1F)N1CCN(C(=O)C2CC2)CC1
viability, T/C (compound alone 1 µM): 76.5, 68.3, 93, 84, 97.1% | viability, T/C (compound alone 3.16 µM): 51.2, 55, 79.1, 78.5, 78.7%

CC1OCC2(CCN(c3cnc(Sc4ccnc(N)c4Cl)c(N)n3)CC2)C1N (stereo unspecified)
viability, T/C (compound alone 0.316 µM): 72.6, 90.3, 82, 70.4, 86.6, 91.6, 83.4, 84.5, 80.3, 73.1, 65, 86.4, 63.1, 53.7, 90.7, 86.9, 93.2, 87.2, 83.7% | viability, T/C (compound alone 1 µM): 92.2, 108, 92.1, 57.6, 62.3, 71.3, 50, 54, 72, 64.2, 57.7, 78.4, 60.3, 68.7, 67.7, 77.8, 69.2, 78.7, 75.2, 86.2% | viability, T/C (compound alone 3.16 µM): 33.6, 66.4, 42.9, 43.3, 42.4, 30.6, 38.2, 32.1, 54.7, 50.5, 41.8, 72.4, 54.5, 67, 45.3, 71.9, 50.6, 60.2, 43.1, 72% | viability, T/C (compound alone 10 µM): 40.9, 39.4, 44.8, 38.1, 27, 35.5, 31.5, 55.8, 33.9, 29, 63.2, 40.3, 51.3, 46.6, 49.8, 47, 57.1, 46.3, 67% | IC50 (run of 07/19/2021): 1.01 µM, 1.23 µM, > 10 µM, 2.9 µM, 1.4 µM | IC50 (run of 07/26/2021): 2.61 µM, > 10 µM, 2.96 µM, 2.59 µM, 5.2 µM

CC1COCCN1c1cc(-c2ccnn2C)c2ccnc(-c3ccn[nH]3)c2n1 (stereo unspecified)
IC50: 64.9 nM, 69.9 nM, 72.6 nM, < 10 nM, 62.2 nM | viability, T/C (compound alone 0.01 µM): 105, 101, 99.7, 24.1, 98.9% | viability, T/C (compound alone 0.0316 µM): 81.3, 83.3, 91.1, 11, 80.1% | viability, T/C (compound alone 0.1 µM): 31.3, 35.1, 34.3, 6.95, 28.9%

COc1cc(Nc2ncc3c(n2)-c2ccc(Cl)cc2C(c2c(F)cccc2OC)=NC3)ccc1C(=O)O
IC50: < 31.6 nM, 850 nM, 375 nM, 401 nM, 633 nM | viability, T/C (compound alone 0.0316 µM): 38.9, 64.4, 65.2, 69.4, 66.2% | viability, T/C (compound alone 0.1 µM): 38.3, 64.2, 60.8, 62.2, 65.1%

C=CC(=O)N1CCN(c2nc(OCC3CCCN3C)nc3c2CCN(c2cccc4cccc(C)c24)C3)CC1CC#N (stereo unspecified)
viability, T/C (compound alone 0.0316 µM): 83.1, 94.4, 70.4, 58.9, 81, 83.8, 76.5, 63.4, 61.9, 79.1, 77.4, 79.4, 83.2, 78.4, 84.5, 72.2, 80% | viability, T/C (compound alone 0.1 µM): 61.7, 72.7, 43.6, 50.7, 67.9, 61, 62.1, 66, 57.4, 99.1, 54.8, 66.7, 60.1, 68, 74, 69.4, 56% | viability, T/C (compound alone 0.316 µM): 49, 56.1, 33.6, 35.3, 52.9, 42.4, 21, 39.7, 31.4, 37.4, 58.1, 60.8, 99.4, 49.7, 62.7, 50.4, 52.5% | viability, T/C (compound alone 3.16 µM): 89.6, 14.6, 12.5, 18.6, 17.2, 12.1, 0.12, 0.3, 0.13, 0.49, 0.39, 1.07, 0.34, 7.34, 6.48, 3.48, 6.84% | IC50 (run of 07/12/2021): > 3.16 µM, 438 nM, 89.2 nM, 87.9 nM, 361 nM, 247 nM | IC50 (run of 07/19/2021): 131, 222, 122, 239, 410 nM

CCNC(=O)CC1N=C(c2ccc(Cl)cc2)c2cc(OC)ccc2-n2c(C)nnc21 (stereo unspecified)
viability, T/C (compound alone 10 µM): 44.9, 45.4, 41.8, 19.1, 43.2%

CC(C)n1nc(-c2ccc3oc(N)nc3c2)c2c(N)ncnc21
IC50: 8.94, 7.13, 6.46, 6.38, 2.88 nM | viability, T/C (compound alone 0.00316 µM): 80, 65.9, 59.7, 63.4, 46.5%

CNCc1ccccc1-c1csc(C(C)Nc2nc(C)nc3cc(OC)c(OC)cc23)c1 (stereo unspecified)
viability, T/C (compound alone 0.316 µM): 107, 111, 93.5 (2×), 69.6, 93.2, 93, 99.3, 90.8, 75.2, 95.8, 101, 103, 106, 104, 115, 90.7% | viability, T/C (compound alone 1 µM): 101, 104, 89.7, 65.7, 102, 81.6, 68.7, 81.2, 69.6, 82.5, 79.5, 83.4, 88.1, 94.9, 92.6, 95.5, 89.4% | viability, T/C (compound alone 3.16 µM): 103, 102, 58.7, 2.2, 0.23 (2×), 38.2, 0.3, 0.42, 0.18, 3.61, 0.37, 1.17, 4.01, 0.28, 5.22, 22.7% | IC50 (run of 07/12/2021): 5.72, 5.71, 3.76, 1.33, 1.8, 2.31 µM

COc1cc(OC)cc(N(CCNC(C)C)c2ccc3ncc(-c4cnn(C)c4)nc3c2)c1
IC50: 4.08 µM, 5.67 µM, 4.73 µM, 288 nM, 5.63 µM | viability, T/C (compound alone 0.0316 µM): 103 (2×), 94.6, 137, 102% | viability, T/C (compound alone 0.1 µM): 104 (2×), 96.1, 122, 93.7% | viability, T/C (compound alone 0.316 µM): 88.4, 102, 86.2, 42.9, 94.3% | viability, T/C (compound alone 1 µM): 79.7, 95.3, 82.9, 11.3, 89.7% | viability, T/C (compound alone 3.16 µM): 59.1, 78.5, 64.9, 4.83, 74.7% | viability, T/C (compound alone 10 µM): 21.9, 22.3, 25.3, 0.85, 26.2%

COc1cc2nccc(Oc3ccc(NC(=O)C4(C(=O)Nc5ccc(F)cc5)CC4)cc3)c2cc1OC
IC50: 7.09 µM, 6.05 µM, > 10 µM, 8.5 µM | viability, T/C (compound alone 0.1 µM): 91.9, 97.6, 78.5, 118, 94.6% | viability, T/C (compound alone 0.316 µM): 101, 97.2, 96.4, 125, 106% | viability, T/C (compound alone 10 µM): 51, 36.6, 20.9, 118, 45.7%
